Test results taken from article PMC4237237.
No constants are given. Whether binding was seen depends on the method and setting. In cells and extracts the contact can be indirect. Some binding calls cover weakened binding; strength is not graded here. For some assays here: Where a sequence is shown, tags or fusion partners need not be part of it.

By UniProt entry, the sequences of proteins in these tests, tags left out.
UniProt P12956: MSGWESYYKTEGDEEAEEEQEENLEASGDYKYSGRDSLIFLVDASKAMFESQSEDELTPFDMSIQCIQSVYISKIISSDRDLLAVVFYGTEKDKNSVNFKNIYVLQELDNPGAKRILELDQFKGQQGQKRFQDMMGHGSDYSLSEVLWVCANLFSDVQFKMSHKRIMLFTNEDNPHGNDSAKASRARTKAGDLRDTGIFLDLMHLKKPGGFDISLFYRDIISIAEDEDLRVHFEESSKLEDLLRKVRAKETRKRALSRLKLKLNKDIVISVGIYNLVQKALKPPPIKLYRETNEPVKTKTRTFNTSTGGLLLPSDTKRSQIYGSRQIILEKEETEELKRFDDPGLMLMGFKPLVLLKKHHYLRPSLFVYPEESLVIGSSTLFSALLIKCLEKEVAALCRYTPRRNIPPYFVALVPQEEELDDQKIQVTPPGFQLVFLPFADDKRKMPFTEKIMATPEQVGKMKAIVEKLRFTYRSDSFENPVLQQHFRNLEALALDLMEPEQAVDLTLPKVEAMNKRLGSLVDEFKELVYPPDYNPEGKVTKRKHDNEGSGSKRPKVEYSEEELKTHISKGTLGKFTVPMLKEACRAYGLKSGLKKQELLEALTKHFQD
UniProt Q9UBN7: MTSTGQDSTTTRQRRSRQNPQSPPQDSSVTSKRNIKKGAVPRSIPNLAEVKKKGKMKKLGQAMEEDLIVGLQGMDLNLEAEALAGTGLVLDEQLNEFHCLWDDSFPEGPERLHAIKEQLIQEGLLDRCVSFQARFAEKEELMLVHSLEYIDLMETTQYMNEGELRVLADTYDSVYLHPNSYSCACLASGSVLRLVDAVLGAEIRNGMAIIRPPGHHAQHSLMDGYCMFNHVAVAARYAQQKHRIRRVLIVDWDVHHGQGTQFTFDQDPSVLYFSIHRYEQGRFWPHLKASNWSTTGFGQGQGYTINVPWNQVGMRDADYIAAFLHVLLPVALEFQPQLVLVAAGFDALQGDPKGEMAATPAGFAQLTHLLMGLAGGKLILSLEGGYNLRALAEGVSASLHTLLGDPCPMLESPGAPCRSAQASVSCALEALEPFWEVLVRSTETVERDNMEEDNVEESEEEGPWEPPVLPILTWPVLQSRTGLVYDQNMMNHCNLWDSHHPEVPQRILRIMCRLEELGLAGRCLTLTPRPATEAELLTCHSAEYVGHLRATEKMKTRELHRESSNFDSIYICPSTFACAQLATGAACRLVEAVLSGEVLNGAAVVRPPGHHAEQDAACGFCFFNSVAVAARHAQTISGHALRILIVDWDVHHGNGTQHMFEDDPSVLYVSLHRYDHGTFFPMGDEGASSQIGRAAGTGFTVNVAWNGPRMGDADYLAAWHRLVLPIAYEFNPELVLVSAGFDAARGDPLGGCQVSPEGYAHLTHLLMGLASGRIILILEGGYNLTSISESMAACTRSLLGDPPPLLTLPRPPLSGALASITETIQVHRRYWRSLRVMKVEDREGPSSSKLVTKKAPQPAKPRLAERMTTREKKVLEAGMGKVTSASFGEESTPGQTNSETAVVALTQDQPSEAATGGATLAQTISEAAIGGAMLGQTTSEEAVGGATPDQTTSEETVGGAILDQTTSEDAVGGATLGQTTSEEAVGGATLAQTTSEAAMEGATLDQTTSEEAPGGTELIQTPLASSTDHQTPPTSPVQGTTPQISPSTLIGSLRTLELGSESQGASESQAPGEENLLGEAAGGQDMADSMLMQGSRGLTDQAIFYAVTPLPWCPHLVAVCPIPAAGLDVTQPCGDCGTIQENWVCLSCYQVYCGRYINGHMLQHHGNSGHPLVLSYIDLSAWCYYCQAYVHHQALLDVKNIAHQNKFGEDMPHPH
UniProt Q07812: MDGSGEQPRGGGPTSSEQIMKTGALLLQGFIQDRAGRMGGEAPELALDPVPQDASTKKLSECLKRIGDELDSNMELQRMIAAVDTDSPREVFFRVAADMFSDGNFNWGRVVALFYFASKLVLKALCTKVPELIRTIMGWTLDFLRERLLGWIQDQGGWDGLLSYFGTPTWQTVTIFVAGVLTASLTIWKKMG

Assays:
[1] = biological target: T1, SMAR1 of the in vitro GST pull-down (UniProt Q8VBU8); assay: pull-down; in vitro GST pull-down (Supplementary Figure S2); which partner carried GST not told
T1 sequence: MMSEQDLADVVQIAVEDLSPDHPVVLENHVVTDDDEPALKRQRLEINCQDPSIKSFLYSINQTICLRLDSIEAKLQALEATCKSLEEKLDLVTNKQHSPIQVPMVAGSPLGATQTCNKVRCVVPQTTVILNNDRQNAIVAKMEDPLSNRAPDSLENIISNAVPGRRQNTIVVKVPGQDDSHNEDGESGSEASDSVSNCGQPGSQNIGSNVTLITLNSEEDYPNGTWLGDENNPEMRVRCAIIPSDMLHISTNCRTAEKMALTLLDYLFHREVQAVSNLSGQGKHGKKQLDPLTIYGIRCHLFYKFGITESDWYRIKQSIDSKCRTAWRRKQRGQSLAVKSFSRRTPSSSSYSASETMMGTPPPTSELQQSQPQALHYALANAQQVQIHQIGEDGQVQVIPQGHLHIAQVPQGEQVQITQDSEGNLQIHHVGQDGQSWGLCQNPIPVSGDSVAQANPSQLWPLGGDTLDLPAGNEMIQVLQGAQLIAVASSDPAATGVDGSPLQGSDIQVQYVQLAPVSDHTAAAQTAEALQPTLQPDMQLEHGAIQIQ

[2] = biological target: T2, scaffold/matrix-associated region-binding protein 1 (SMAR1) (human (endogenous in HCT116)) (UniProt Q8N9N5); assay: co-IP; sequential IP: HCT116 lysate (1 mg) first precipitated with SMAR1 antibody, eluate then precipitated with HDAC6 antibody, immunoblot
T2 sequence: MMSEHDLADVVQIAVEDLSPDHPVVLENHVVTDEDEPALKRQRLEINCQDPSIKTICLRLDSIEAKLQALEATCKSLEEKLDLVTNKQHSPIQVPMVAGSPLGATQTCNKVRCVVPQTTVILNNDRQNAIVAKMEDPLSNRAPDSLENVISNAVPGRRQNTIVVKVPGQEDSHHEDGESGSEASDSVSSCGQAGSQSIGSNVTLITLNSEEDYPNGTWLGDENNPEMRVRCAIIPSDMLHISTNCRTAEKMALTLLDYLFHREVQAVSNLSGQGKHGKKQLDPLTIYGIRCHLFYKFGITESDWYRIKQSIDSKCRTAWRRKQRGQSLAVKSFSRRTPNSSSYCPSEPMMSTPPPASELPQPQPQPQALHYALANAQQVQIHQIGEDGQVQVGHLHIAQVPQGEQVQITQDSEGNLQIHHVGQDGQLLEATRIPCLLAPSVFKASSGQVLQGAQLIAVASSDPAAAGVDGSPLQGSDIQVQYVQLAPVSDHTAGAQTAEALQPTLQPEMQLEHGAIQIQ

[3] = biological target: T2, scaffold/matrix-associated region-binding protein 1 (SMAR1) (human (endogenous in HCT116)); assay: co-IP; in vivo interaction studies in HEK 293 and MCF-7 cells (Supplementary Figure S2)
[4] = biological target: T3, Flag-tagged SMAR1 DNA-binding domain (350–548 residues) (UniProt Q8VBU8); assay: co-IP; HCT116 cells transfected with Flag-tagged SMAR1 constructs, untreated or irradiated (10 Gy, 2 h), lysates precipitated with anti-Flag antibody, immunoblot
T3 sequence: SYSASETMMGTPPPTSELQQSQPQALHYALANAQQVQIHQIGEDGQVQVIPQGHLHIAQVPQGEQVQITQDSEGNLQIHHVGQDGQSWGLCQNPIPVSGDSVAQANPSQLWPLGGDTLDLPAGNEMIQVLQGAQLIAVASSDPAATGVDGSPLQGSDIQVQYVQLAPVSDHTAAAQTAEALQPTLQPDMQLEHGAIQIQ

[5] = biological target: T4, Flag-tagged SMAR1 N-terminal region (1–160 residues) (UniProt Q8VBU8); assay: as above
T4 sequence: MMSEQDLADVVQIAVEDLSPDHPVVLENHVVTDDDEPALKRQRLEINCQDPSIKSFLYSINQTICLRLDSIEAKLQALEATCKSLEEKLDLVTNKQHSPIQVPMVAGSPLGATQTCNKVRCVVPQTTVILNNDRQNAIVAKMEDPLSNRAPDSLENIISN

[6] = biological target: T5, Flag-tagged SMAR1 protein-interacting domain (160–350 residues) (UniProt Q8VBU8); assay: as above
T5 sequence: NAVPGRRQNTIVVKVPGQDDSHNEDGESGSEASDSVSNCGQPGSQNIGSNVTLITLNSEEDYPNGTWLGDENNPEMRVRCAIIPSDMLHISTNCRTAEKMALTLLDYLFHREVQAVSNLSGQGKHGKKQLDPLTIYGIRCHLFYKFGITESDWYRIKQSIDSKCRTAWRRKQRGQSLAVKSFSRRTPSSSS

[7] = biological target: T2, scaffold/matrix-associated region-binding protein 1 (SMAR1) (human (endogenous in HCT116)); assay: co-IP; control and irradiated (10 Gy) HCT116 lysates treated with EtBr (50 μg/ml, 30 min, 4 °C) or DNase I (100 U/ml, 20 min, 37 °C), precipitated with SMAR1 antibody, blotted for Ku70
[8] = biological target: T2, scaffold/matrix-associated region-binding protein 1 (SMAR1) (human (endogenous in HCT116)); assay: co-IP; HCT116 whole-cell lysates, control or irradiated (10 Gy; 2 h, 8 h or time course), precipitated with SMAR1 antibody cross-linked to protein A/G beads, 4 °C for 4 h, immunoblot of eluates
[9] = biological target: Ku70 (human (endogenous in HCT116)) (UniProt P12956); assay: co-IP; lysates of control HCT116 cells and cells transduced with Ad-SM (SMAR1 overexpression) or sh3 (SMAR1 knock-down), precipitated with Ku70 or Bax antibody, immunoblot
[10] = biological target: Ku70 (human (endogenous in HCT116)) (UniProt P12956); assay: co-IP; reverse IP in HCT116 cells (Supplementary Figure S2)

In the case of “Ku70 of the in vitro GST pull-down (from UniProt P12956 1-609)”, the binding [1] is reported as “binds”.

With “HDAC6 (from UniProt Q9UBN7 1-1215) (enzyme)” the binding [2] was “binds”.

For Ku70 (from UniProt P12956 1-609), the binding [3] was “binds”, the binding [2] was “binds” and the binding [4] was “no binding”. The binding [5] was “no binding”, the binding [6] was “binds” and the binding [7] was “binds”. For the same molecule, the binding [8] was “binds”.

Bax (from UniProt Q07812 1-192) was tested, and the binding [9] was “binds”.

B1: scaffold/matrix-associated region-binding protein 1 (SMAR1) (protein, UniProt Q8N9N5 1-519)
chain: T2 sequence
With B1 the binding [10] was “binds”.
